Results taken from the antibiotic and cytotoxicity screens of Wong et al. (2023).
Some of the results follow.

Experiments:
[1] = test system: HSkMC (human skeletal muscle cells); assay: cytotoxicity call (relative viability < 0.9); settings: 10 µM
[2] = test system: S. aureus RN4220; assay: growth inhibition call (relative growth <= 0.2); settings: 50 µM

| SMILES | cytotoxicity call [1] | growth inhibition call [2] |
| --- | --- | --- |
| COCC#Cc1ccc2c(c1)O[C@H](CN(C)C(=O)Nc1ccccc1F)[C@H](C)CN([C@H](C)CO)S2(=O)=O | inactive | inactive |
| Cc1cccc(S(=O)(=O)N2C[C@@H](O)COC[C@@H]3O[C@@H](CC(=O)NCCCN4CCOCC4)CC[C@H]32)c1 | inactive | inactive |
| C[C@@H]1CN([C@@H](C)CO)C(=O)c2cccc(NS(=O)(=O)c3ccc(Cl)cc3)c2O[C@H]1CN(C)Cc1ccc(C(=O)Nc2ccccc2N)cc1 | inactive | inactive |
| Cc1cc(SCc2ccc(F)cc2)c(C)cc1Cl | inactive | inactive |
| C[C@@H]1CN([C@@H](C)CO)C(=O)c2cc(NS(=O)(=O)c3cccs3)ccc2O[C@@H](C)CCCCO[C@@H]1CN(C)S(=O)(=O)c1cn(C)cn1 | inactive | inactive |
| O=C(C[C@@H]1CC[C@H]2[C@@H](COC[C@@H](O)CN2S(=O)(=O)c2cccc(Cl)c2)O1)N1CCOCC1 | inactive | inactive |
| COc1nc(N)nc2c1ncn2[C@@H]1O[C@H](CO)[C@@H](O)[C@@H]1O | inactive | inactive |
| C[C@@H]1CN([C@@H](C)CO)S(=O)(=O)c2ccc(C3=CCCCC3)cc2O[C@H]1CN(C)C(=O)C1CCOCC1 | inactive | inactive |
| O=C(C[C@H]1CC[C@@H]2[C@H](COC[C@H](O)CN2C(=O)c2cnccn2)O1)N1CCN(c2ccccc2)CC1 | inactive | inactive |
| CC(=O)N[C@@H]1[C@@H](Oc2ccc(C(C)=O)cc2)O[C@H](CO)[C@H](O)[C@@H]1O | inactive | inactive |
| CC(=O)c1ccc2c(c1)N(CCCN1CCN(CCO)CC1)c1ccccc1S2.O=C(O)C=CC(=O)O | inactive | inactive |
